# Measured values: PubChem BioAssay AID686978 (National Center for Advancing Translational Sciences (NCATS), 2013)
# “And” between values parts separate entries of the source, which are not always exact repeats. Identical values can stand only once. Screen size: about 420,000 compounds; about 64,000 (15%) were called active. Inconclusive results, whose numbers are uncertain, are shown with a selection of clear calls. The call rests on the fitted dose curve; in most records, active means well fitted inhibition curve with a large enough effect; inconclusive means small, poorly fitted or top-dose-only effect; inactive means flat fitted curve, though single readings scatter. Where the call is inconclusive, the potency comes from a doubtful curve fit.
# Assay: qHTS for Inhibitors of human tyrosyl-DNA phosphodiesterase 1 (TDP1): qHTS in cells in absence of CPT; further: nearly all actives have a fitted effect of over 55% in size
# Details: DT40 Tdp1-/- hTDP1 cells, no CPT, ATP luminescence, 48 h; activity change, negative = growth inhibition: at 46.2 µM (top of the series) unless noted
# Outline: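 Luminescent ATP content (CellTiter-Glo) served as the growth readout. Knockout chicken DT40 cells expressing human TDP1 were exposed to compounds without camptothecin for a minimum 48 hr at 37 °C.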
# On the % scale 0 is the no-effect control and ±100 the full control effect; potency means the concentration at half of the fitted maximal effect; tags describe the fitted curve by direction and shape.
Structure (SMILES),"activity change, negative = growth inhibition",Potency
O=C(NCc1nnc2c(C(F)(F)F)cc(Cl)cn12)c1cccnc1,inactive: 3.26%,
COc1ccc(C)cc1NC(=O)NC1CCN(Cc2ccccc2)CC1,,"inconclusive: 29.1 µM [inhibitor, single point]"
CCN(Cc1ccccc1)c1ccc(/C=N/NC(=S)NC(C)C)cc1,,active: 2.91 µM
CCCOc1ccc(C2C(C(=O)c3ccc(C)o3)=C(O)C(=O)N2CCN2CCOCC2)cc1OC (configuration not stated),inactive: -1.53%,
COc1cc(Nc2nc3c(S(=O)(=O)c4ccc(C)c(C)c4)nnn3c3ccsc23)cc(OC)c1,,active: 13 µM
CNc1ccc(-c2cccc([N+](=O)[O-])c2)cn1,,"inconclusive: 29.1 µM [inhibitor, single point]"
O=C(Cc1ccccc1)NCc1ccc(F)cc1,inactive: 5.8%,
CN(C)C(CNC(=O)c1cc(S(=O)(=O)N(C)c2ccccc2)ccc1Cl)c1ccccc1 (configuration not stated),,active: 6.51 µM
CN(CC(=O)Nc1ccc(Cl)c(C(F)(F)F)c1)C(=O)C1CCC1,,"inconclusive: 6.51 µM [inhibitor, partial curve]"
COc1ccc(CCN(Cc2cc3cccc(C)c3[nH]c2=O)C(=O)N2CCCC2)cc1OC,,"inconclusive: 16.4 µM [inhibitor, single point]"
CC(=O)c1nc(N2CCN(S(=O)(=O)c3ccc(C)cc3)CC2)c2ccccc2n1,,"inconclusive: 35.5 µM [inhibitor, partial curve, poor fit]"
CCn1c(/C=C2\C(=O)Nc3ccccc32)nc2ccccc2c1=O,,active: 16.4 µM
CCOc1cc(C(=S)N2CCCCC2)ccc1OCC(=O)NCc1ccccc1,,"inconclusive: 25.9 µM [inhibitor, single point]"
O=C(CCCN1C(=O)/C(=C\c2ccco2)SC1=S)Nc1ccc(O)cc1C(=O)O,inconclusive: -32.4% [inhibitor],
Cc1cc(C)cc(C(O)c2ncc(-c3ccccc3C)[nH]2)c1 (configuration not stated),,"inconclusive: 29.1 µM [inhibitor, single point]"
COCCNC(=O)c1onc(CSc2ccc(F)c(F)c2)c1C(=O)NCCOC,inactive: -6.69%,
O=S(=O)(O)c1cccc(N=Nc2c(O)ccc3ccccc23)c1,inactive: -18.9%,
CCOC(=O)c1c(NC(=O)C2c3ccccc3Oc3ccccc32)sc(C)c1CC,inactive: -5.73%,
Oc1ccc(NCc2ccccc2OCc2ccc(Cl)cc2)cc1,,active: 20.6 µM
COc1ccc2nc(SCc3nc(N)nc(Nc4ccccc4)n3)[nH]c2c1,,active: 16.4 µM
Cc1ccc(Cn2c(C(C)Nc3nc(-c4ccc(F)cc4)cs3)nc3cc(Cl)c(Cl)cc32)cc1 (configuration not stated),,"inconclusive: 20.6 µM [inhibitor, single point]"
c1ccc(-c2noc(C3CCCCC3)n2)nc1,inactive: -17.9%,
Cc1cccc(COc2ccc(/C(O)=C3\C(=O)C(=O)N(CCN(C)C)C3c3ccncc3)cc2)c1 (configuration not stated),inactive: 0.217%,
CSc1ccccc1C(=O)NCCS(=O)(=O)N1CCN(c2ccc(F)cc2)CC1,,"inconclusive: 23.1 µM [inhibitor, single point]"

Structure (SMILES),"activity change, negative = growth inhibition",Potency
O=C(OCc1nnc(-c2cccs2)o1)C1=NN(c2ccccc2)C(=O)CC1,,"inconclusive: 6.51 µM [inhibitor, partial curve]"
CCn1c(=O)cc(OCC(=O)N(C)c2cc(Cl)ccc2C)c2ccccc21,,active: 23.1 µM
CC(C)Cn1c(N)c(C(=O)COC(=O)c2cc(C3CC3)nc3ccccc23)c(=O)n(C)c1=O,,active: 20.6 µM
COCC(C)NC(=O)/C(=C/c1ccccc1)c1ccccc1 (configuration not stated),,"inconclusive: 14.6 µM [inhibitor, single point]"
CCOC(=O)c1c(NC(C)=O)sc(/C(C)=N/Nc2ccc(C(=O)O)cc2)c1C,,"inconclusive: 6.51 µM [inhibitor, partial curve]"
CCOC(=O)c1c(NC(=O)c2cccnc2Cl)sc(C(=O)N(C)C)c1C,inconclusive: -30.5% [inhibitor],
Cc1ccc(Sc2cnc(N)nc2C)cc1,,active: 16.4 µM
CC(=O)Nc1ccc2c(=O)n(-c3ccccc3)sc2c1,,active: 3.26 µM
COc1ccccc1NC(=O)Nc1nc(CC(=O)NCc2ccccn2)cs1,,active: 25.9 µM
O=C(CCCn1c(=S)[nH]c2ccc(Br)cc2c1=O)NCc1ccccn1,,"inconclusive: 18.4 µM [inhibitor, single point]"
CCOC(=O)CC(NC(=O)C1c2ccccc2Oc2ccccc21)c1ccccc1Cl (configuration not stated),,"inconclusive: 29.1 µM [inhibitor, single point]"
Cc1cc([N+](=O)[O-])nn1Cc1noc(C(=O)NCCc2ccccn2)n1,inactive: 13%,
O=C1C2C(c3cccc(/C=C/c4ccccc4)c3)CC=CC2C(c2ccc3ccccc3c2)N1Cc1ccccc1 (configuration not stated),,active: 16.4 µM
Cc1ccc(NC(=O)CCn2cnc3ccccc3c2=O)cc1,inactive: -3.15%,
CN(C)c1nc2c(c(=O)[nH]c(=O)n2C)n1CCCc1ccccc1,inactive: -14.3%,
CC(c1ccon1)N(C)Cc1c(C(=O)N(C)Cc2ccccc2)nc2ccccn12 (configuration not stated),,"inconclusive: 16.4 µM [inhibitor, partial curve]"
CCN1C(=O)N[C@@H](c2cccc(C(F)(F)F)c2)C(C(=O)OC)=C1C,,"inconclusive: 18.4 µM [inhibitor, single point]"
FC(F)(F)c1ccccc1Cc1c(-c2ccco2)nc2ccc(Cl)cn12,,"inconclusive: 23.1 µM [inhibitor, single point]"
CC(C)(C)C1CCc2nc(NC(=O)Cc3ccccc3)sc2C1 (configuration not stated),,"inconclusive: 29.1 µM [inhibitor, single point]"
COC(=O)c1ccccc1NC(=O)N1CCC(N2CCN(Cc3ccc(F)cc3)C(=O)C2=O)CC1,inactive: -0.965%,
Cc1ccc(S(=O)(=O)N2CC[C@H]3[C@@H](C2)C(=O)C[C@@H](c2ccccc2)N3S(=O)(=O)c2ccc(C)cc2)cc1,inactive: -10.3%,
CCc1c(C)nc2ncnn2c1N1CCN(S(=O)(=O)c2ccc(OC)cc2)CC1,,active: 5.8 µM
CCCN(CC(=O)Nc1ccccc1C)C(=O)c1ccc(C2SCCS2)cc1,,"inconclusive: 20.6 µM [inhibitor, single point]"
Cc1ccc(N(C(=O)c2snc(C(N)=O)c2N)C(C(=O)NC2CCCC2)c2ccc(C)o2)cc1 (configuration not stated),,"inconclusive: 29.1 µM [inhibitor, single point]"

Structure (SMILES),"activity change, negative = growth inhibition",Potency
COc1cccc(CNC(=O)CN2C(=O)CSc3ccc(S(=O)(=O)N4CCCCC4)cc32)c1,,"inconclusive: 29.1 µM [inhibitor, single point]"
CCOCCCNC(=O)c1c(NC(=O)c2nc(SCC)ncc2Cl)sc2c1CCCC2,,active: 10 µM
Cc1nc2c(OCc3ccc(Cl)cc3Cl)cccn2c1N(C)Cc1cccs1,,"inconclusive: 29.1 µM [inhibitor, single point]"
COc1ccc(-c2cc(C)no2)cc1S(=O)(=O)NCCCN(C)Cc1ccccc1,,"inconclusive: 23.1 µM [inhibitor, partial curve, poor fit]"
COCCOc1ccc(C(F)(F)F)cc1NC(=O)COC(=O)c1ccc(N2CCCC2=O)cc1,inactive: -26.6%,
Cc1ccc(N(C)S(=O)(=O)c2cccc(C(=O)Oc3ccc4c(C)cc(=O)oc4c3)c2)cc1,inactive: -24.7%,
O=C(Nc1ccc(CN2CCOCC2)cc1)c1cc(Br)ccc1Cl,inconclusive: -33% [inhibitor],
CCN(C(=S)NC(=O)C1CCCC1)C1CCCCC1,inactive: -2.13%,
CCCn1c(NC(=O)c2cccc(S(=O)(=O)N3CCCC3)c2)nc2ccccc21,,active: 13 µM
COc1ccccc1N1C(=O)N(CC(=O)C(C)(C)C)c2ccccc2S1(=O)=O,,"inactive and inconclusive: 23.1 µM [inhibitor, single point]"
O=C(c1cccs1)N(Cc1nc2sc3c(c2c(=O)[nH]1)CCCC3)C1CCCC1,,"inconclusive: 13 µM [inhibitor, partial curve]"
COc1ccccc1N1CCN(c2ncnc3n[nH]c(Br)c23)CC1,,"inconclusive: 29.1 µM [inhibitor, single point]"
COc1ccc(CCNc2c(N)n(Cc3ccccc3)c(=O)[nH]c2=O)cc1OC,,"inconclusive: 29.1 µM [inhibitor, single point]"
CC(=O)c1ccc(OCCCC(=O)Nc2cccc(S(=O)(=O)N3CCCCCC3)c2)cc1,,"inconclusive: 18.4 µM [inhibitor, single point]"
OCCC1CN(Cc2nc3ccccc3[nH]2)CCN1C1CCCC1 (configuration not stated),inactive: 2.25%,
O=C(Nc1ccc2c(c1)OCCO2)c1ccc(Br)cc1,,"inconclusive: 18.4 µM [inhibitor, partial curve, poor fit]"
COC(=O)N1C(=O)[C@](c2ccsc2)(C(C)C)N1C(=O)OC,,"inconclusive: 29.1 µM [inhibitor, single point]"
Cc1cc(Br)ccc1OCCN1CC(C)OC(C)C1 (configuration not stated),,"inconclusive: 23.1 µM [inhibitor, single point]"
O=C(NCc1cccnc1)C1CCCN(S(=O)(=O)c2ccc(Br)cc2)C1 (configuration not stated),,"inconclusive: 29.1 µM [inhibitor, single point]"
O=C(Nc1ccc(Cl)cn1)C1CCCN1S(=O)(=O)c1ccccc1 (configuration not stated),,active: 11.6 µM
Nc1ncnc2c1ncn2[C@@H]1O[C@H](CNC(=O)[C@@H](N)COCc2ccccc2)[C@@H](O)[C@H]1O,inactive: -15.9%,
O=C1CN(C(=O)COc2ccc(Cl)cc2Cl)C(c2ccccc2)c2cc(F)ccc2N1 (configuration not stated),,"inconclusive: 23.1 µM [inhibitor, single point]"
CCN(CC)S(=O)(=O)c1cc(NS(=O)(=O)c2cccc(C(=O)O)c2)ccc1C,inactive: -11.8%,
COC(=O)c1ccc(Oc2cc(C)nc(SC)n2)cc1,,active: 2.91 µM
